Laboratory results taken from PMC4336329 (PLoS ONE, 2015).
About 14,000 (4.5%) of roughly 310,000 compounds showed an effect of 50% or more. Effects have a minus sign here. This is one part of the list.
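Note: peak tail current of the secondary pulse compared with the same well before compound.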

What follows are molecules tested against human ether-à-go-go-related gene (hERG) potassium channel (human, UniProt Q12809) (assay: primary screen, population patch clamp on CHO cells stably expressing hERG).
Sequence of human ether-à-go-go-related gene (hERG) potassium channel (Q12809 whole entry, looked up): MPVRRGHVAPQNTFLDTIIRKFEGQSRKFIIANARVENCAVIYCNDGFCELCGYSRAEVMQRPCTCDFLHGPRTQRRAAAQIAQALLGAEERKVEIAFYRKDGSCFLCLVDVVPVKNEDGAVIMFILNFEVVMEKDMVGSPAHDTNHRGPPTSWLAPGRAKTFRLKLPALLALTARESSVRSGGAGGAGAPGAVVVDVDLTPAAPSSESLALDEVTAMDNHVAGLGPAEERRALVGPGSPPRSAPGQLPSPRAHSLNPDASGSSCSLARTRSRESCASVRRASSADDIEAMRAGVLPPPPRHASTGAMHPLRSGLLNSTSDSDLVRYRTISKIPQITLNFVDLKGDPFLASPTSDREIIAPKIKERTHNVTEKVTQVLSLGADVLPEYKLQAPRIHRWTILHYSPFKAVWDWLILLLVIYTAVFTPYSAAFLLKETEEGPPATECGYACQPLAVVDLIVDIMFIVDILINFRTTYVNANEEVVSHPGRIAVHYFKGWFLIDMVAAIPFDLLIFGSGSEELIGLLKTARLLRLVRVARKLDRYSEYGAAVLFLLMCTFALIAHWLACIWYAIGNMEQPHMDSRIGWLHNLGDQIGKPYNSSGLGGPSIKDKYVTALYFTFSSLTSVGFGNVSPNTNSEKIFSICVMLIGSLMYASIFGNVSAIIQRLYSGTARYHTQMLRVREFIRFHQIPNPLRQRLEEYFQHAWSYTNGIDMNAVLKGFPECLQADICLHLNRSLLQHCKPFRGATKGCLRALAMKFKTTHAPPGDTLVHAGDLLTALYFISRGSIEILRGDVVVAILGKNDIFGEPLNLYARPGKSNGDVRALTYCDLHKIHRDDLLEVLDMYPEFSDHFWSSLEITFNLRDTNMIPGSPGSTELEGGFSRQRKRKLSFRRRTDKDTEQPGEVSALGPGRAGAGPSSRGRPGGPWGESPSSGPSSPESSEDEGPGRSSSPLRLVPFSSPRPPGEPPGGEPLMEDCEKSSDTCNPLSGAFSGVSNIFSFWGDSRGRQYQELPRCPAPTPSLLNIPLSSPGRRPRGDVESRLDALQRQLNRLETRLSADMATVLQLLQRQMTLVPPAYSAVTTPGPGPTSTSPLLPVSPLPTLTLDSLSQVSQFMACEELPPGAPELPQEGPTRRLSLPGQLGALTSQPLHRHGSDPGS
In the case of `O=C(NC(NC(=S)Nc1ccccc1Cl)C(Cl)(Cl)Cl)c1cccc(Cl)c1` (stereo not drawn), the “hERG current change (%, negative = inhibition) at 10uM” value is reported as -0.367%.
For `CC(=O)c1cccc(NC(=O)c2cc(-c3cccs3)on2)c1`, the “hERG current change (%, negative = inhibition) at 10uM” value was 27%.
`CN1CCN(CCCNC(=O)C2CC(=O)N(C3CCCCC3)C2)CC1` (stereo not drawn) was tested, and the “hERG current change (%, negative = inhibition) at 10uM” value was 6.41%.
With `COc1ccccc1NC(=O)c1ccccc1NC(=O)c1cc(Cl)ccc1NC(=O)c1ccco1` the “hERG current change (%, negative = inhibition) at 10uM” value was 2.97%.
With `CC(OC(=O)CCN1C(=O)C2CC=CCC2C1=O)C(=O)Nc1cccc(Cl)c1` (stereo not drawn) the “hERG current change (%, negative = inhibition) at 10uM” value was -13.9%.
In the case of `CC(C)C(=O)c1cn(Cc2ccc(C#N)cc2)c2ccccc12`, the “hERG current change (%, negative = inhibition) at 10uM” value is reported as -75.6%.
For `CC1CCN(CCCNC(=O)c2ccc3c(=O)n(CCc4ccccc4)c(=O)[nH]c3c2)CC1`, the “hERG current change (%, negative = inhibition) at 10uM” value was -20.4%.
For `Cc1nc2ccccc2c2oc(C(=O)NCc3ccccn3)cc12`, the “hERG current change (%, negative = inhibition) at 10uM” value was -31.2%.
In the case of `Cc1ccc(NS(=O)(=O)N(C)C)cc1`, the “hERG current change (%, negative = inhibition) at 10uM” value is reported as 5.27%.
For `Cc1ccsc1C1C(C#N)=C(N)OC2=C1C(=O)CCC2` (stereo not drawn), the “hERG current change (%, negative = inhibition) at 10uM” value was -2.2%.
In the case of `Cc1cccc(C(=O)NC2CCCCCCC2)c1`, the “hERG current change (%, negative = inhibition) at 10uM” value is reported as -11.8%.
With `CCOC(=O)N1CCC(NCCNC(=O)c2cccs2)CC1` the “hERG current change (%, negative = inhibition) at 10uM” value was 3.91%.
In the case of `Cc1cc(Cl)nc(Cl)c1C(=O)NC(=O)NCCC(C)C`, the “hERG current change (%, negative = inhibition) at 10uM” value is reported as 6.83%.
For `COc1ccc(-n2nnnc2SCC(=O)Nc2ccc(OC)cc2OC)cc1`, the “hERG current change (%, negative = inhibition) at 10uM” value was 15.8%.
`COc1ccccc1S(=O)(=O)Cc1ccc(C(=O)NCCN2CCCC2)o1` was tested, and the “hERG current change (%, negative = inhibition) at 10uM” value was -8.12%.
With `CC1Sc2ccc(S(=O)(=O)CCC(=O)NC3CCCC(C)C3C)cc2NC1=O` (stereo not drawn) the “hERG current change (%, negative = inhibition) at 10uM” value was 16.4%.
`O=C(NC1CCCCC1)C(c1ccco1)N(Cc1cccnc1)C(=O)C1COc2ccccc2O1` (stereo not drawn) was tested, and the “hERG current change (%, negative = inhibition) at 10uM” value was -18.8%.
In the case of `CCOC(=O)c1cccc(NC(=O)c2c(NCc3ccccc3)[nH]c(=O)[nH]c2=O)c1`, the “hERG current change (%, negative = inhibition) at 10uM” value is reported as -0.388%.
For `CCN(CC)CCn1c(=S)[nH]c2ccc(Br)cc2c1=O`, the “hERG current change (%, negative = inhibition) at 10uM” value was -66.7%.
For `CCOC(=O)NCCc1ccc(OC)cc1`, the “hERG current change (%, negative = inhibition) at 10uM” value was 8.6%.
`CCNC(=S)Nc1nc2c(cc1C(=O)OCC)CCCC2` was tested, and the “hERG current change (%, negative = inhibition) at 10uM” value was 17.7%.
In the case of `Cc1ccc(NS(=O)(=O)c2ccc3c(c2)CC(=O)N3)cc1C`, the “hERG current change (%, negative = inhibition) at 10uM” value is reported as 7.62%.
For `COc1ccc(CCN=C(N)NS(=O)(=O)c2cccs2)cc1OC`, the “hERG current change (%, negative = inhibition) at 10uM” value was 12%.
In the case of `Cc1cccc2cc(CNCc3ccccc3)c(Cl)nc12`, the “hERG current change (%, negative = inhibition) at 10uM” value is reported as 10.1%.
`C[C@H]1CN=C(N(C)C)N1CCC1CCCCC1` was tested, and the “hERG current change (%, negative = inhibition) at 10uM” value was -2.84%.
For `CC(C)C(NS(=O)(=O)c1cccs1)C(=O)NCCCN1CCCCCC1` (stereo not drawn), the “hERG current change (%, negative = inhibition) at 10uM” value was 19.4%.
For `COc1ccc(Oc2ccc(C(F)(F)F)cc2NC(=O)c2ccc(OC)cc2)cc1`, the “hERG current change (%, negative = inhibition) at 10uM” value was 12.5%.
`CC(C)c1cccc(C(C)C)c1NC(=S)Nc1cccc(Cl)c1` was tested, and the “hERG current change (%, negative = inhibition) at 10uM” value was 5.01%.
In the case of `Cc1cc(NC(=O)Cn2c(=O)oc3ccc(Cl)cc32)no1`, the “hERG current change (%, negative = inhibition) at 10uM” value is reported as 22.2%.
With `Cc1cc(Cl)cc(C)c1OCCCCN1CCOCC1` the “hERG current change (%, negative = inhibition) at 10uM” value was -34.3%.
For `O=C(O)C1=NN(c2ccccc2)C(=O)CC1`, the “hERG current change (%, negative = inhibition) at 10uM” value was 19.6%.
For `COCCCNc1nc2c(c(=O)n(Cc3ccc(Cl)cc3)c(=O)n2C)n1C`, the “hERG current change (%, negative = inhibition) at 10uM” value was 0.305%.
For `Cn1cc(C(=O)Nc2ccc(C#N)cc2)c2ccccc2c1=O`, the “hERG current change (%, negative = inhibition) at 10uM” value was -14.2%.
`CCOc1ccc2nc(NC3=NC(c4ccc(OC)cc4)CC(=O)N3)nc(C)c2c1` (stereo not drawn) was tested, and the “hERG current change (%, negative = inhibition) at 10uM” value was 4.52%.
With `Cc1ccc(S(=O)(=O)N2CCCC2C(=O)NCCc2nc3ccccc3[nH]2)cc1` (stereo not drawn) the “hERG current change (%, negative = inhibition) at 10uM” value was -12.7%.
`CCOC(=O)CSC(=S)NC(=O)c1ccc(OC)cc1` was tested, and the “hERG current change (%, negative = inhibition) at 10uM” value was 16.4%.
For `Cc1c(Cl)cccc1NC(=O)CNC(=O)c1ccc(F)cc1`, the “hERG current change (%, negative = inhibition) at 10uM” value was 27.4%.
In the case of `COc1cc(CN2CCN(S(=O)(=O)c3ccc(F)cc3)CC2)cc(OC)c1OC.O=C(O)C(=O)O`, the “hERG current change (%, negative = inhibition) at 10uM” value is reported as -5.89%.
`Cc1ccccc1NC(=O)C(=O)NCCc1c[nH]c2ccccc12` was tested, and the “hERG current change (%, negative = inhibition) at 10uM” value was -2.22%.
With `CC1(C)OC(=O)C(=CSc2ccc(C(C)(C)C)cc2)C(=O)O1` the “hERG current change (%, negative = inhibition) at 10uM” value was -2.72%.
For `Cn1ncc(N=Cc2c(O)ccc3ccccc23)c1C(=O)N1CCOCC1`, the “hERG current change (%, negative = inhibition) at 10uM” value was 2.54%.
`O=C(N/N=C/c1c(O)n(C2CCCCC2)c(=S)[nH]c1=O)c1ccccc1O` was tested, and the “hERG current change (%, negative = inhibition) at 10uM” value was 11.3%.
With `O=C(NCCCN1CCOCC1)c1ccc2c(c1)N(Cc1ccccc1)C(=O)c1ccccc1S2=O` (stereo not drawn) the “hERG current change (%, negative = inhibition) at 10uM” value was -13.6%.
`O=C1C(=O)N(CC2CCCO2)C(c2ccccc2[N+](=O)[O-])/C1=C(/O)c1ccccc1` (stereo not drawn) was tested, and the “hERG current change (%, negative = inhibition) at 10uM” value was 21.6%.
With `CCOC(=O)C1=C(C)Nc2ccccc2N=C1NC(=O)/C=C/c1ccc(OC)cc1OC` the “hERG current change (%, negative = inhibition) at 10uM” value was -13.8%.
`O=C(NCc1ccccc1)c1ccc2nc(-c3ccco3)c(-c3ccco3)nc2c1` was tested, and the “hERG current change (%, negative = inhibition) at 10uM” value was -10.7%.
For `CN(Cc1ccccc1)c1ncnc2sccc12`, the “hERG current change (%, negative = inhibition) at 10uM” value was -8.6%.
In the case of `CN(c1ccc(C(=O)NCc2ccccn2)cc1)S(=O)(=O)c1ccc(Cl)cc1`, the “hERG current change (%, negative = inhibition) at 10uM” value is reported as -7.33%.
With `Cc1cccn2c(=O)c(C=NCCO)c(NCc3ccco3)nc12` the “hERG current change (%, negative = inhibition) at 10uM” value was -18.7%.
In the case of `C=CCn1c(SCC(=O)Nc2sc(C)c(C)c2C(=O)OCC)nnc1-c1sc(N)nc1C`, the “hERG current change (%, negative = inhibition) at 10uM” value is reported as 4.94%.
With `CSCc1ccc(C(=O)NCc2ccc(F)cc2)cc1` the “hERG current change (%, negative = inhibition) at 10uM” value was -2.07%.
With `O=C(NCCN1CCOCC1)/C(=C/c1ccccc1)NC(=O)c1ccccc1` the “hERG current change (%, negative = inhibition) at 10uM” value was -16.4%.
In the case of `COCCN(C(=O)CSc1nnc(-c2ccco2)n1C)c1c(N)n(CC(C)C)c(=O)[nH]c1=O`, the “hERG current change (%, negative = inhibition) at 10uM” value is reported as 8.41%.
In the case of `CCc1ccc2n(-c3ccc(OC)cc3)c([S-])c(C(=O)Nc3cc(C)cc(C)c3)[n+]2c1`, the “hERG current change (%, negative = inhibition) at 10uM” value is reported as 12.3%.
For `O=C(COC(=O)Cc1ccsc1)Nc1cccc(F)c1`, the “hERG current change (%, negative = inhibition) at 10uM” value was -0.473%.
`COc1ccc(C(=O)N2CCN(c3cnn(-c4ccccc4)c(=O)c3Cl)CC2)cc1` was tested, and the “hERG current change (%, negative = inhibition) at 10uM” value was -71.3%.
For `CC(=O)c1ccc(OCCCC(=O)OCC(=O)Nc2c(C)nn(-c3ccccc3)c2C)cc1`, the “hERG current change (%, negative = inhibition) at 10uM” value was -7.41%.
